From patent publication US11178870B2 (priority 2017, dated 2021)

Experiments:
Magnaporthe grisea = type: in vivo; settings: Table 7, Test A
Phytophthora infestans = type: in vivo; settings: Table 7, Test F
[1] = system: Colletotrichum orbiculare; settings: 250 ppm sprayed (2.5 ml/pot) before inoculation; assessed 6 to 10 days after inoculation

| Structure (SMILES) | control value, Test A (blast on rice) (Magnaporthe grisea) | control value, Test F (late blight on tomato) (Phytophthora infestans) | control value, Test H (anthracnose on cucumber) [1] |
| --- | --- | --- | --- |
| CCn1c(-c2ccc(F)cc2C)c(-n2ncc(C)c2Cl)cc(Cl)c1=O [Compound 369] | H (H shows the control value more than 50%) | L (L shows the control value of 50% or less) | – |
| Cc1cnn(-c2ccc(=O)n(CC(F)F)c2-c2ccc(F)cc2Br)c1 [Compound 338] | – | L (L shows the control value of 50% or less) | H (H shows the control value more than 50%) |
| Cc1cnn(-c2cc(Br)c(=O)n(CC(F)F)c2-c2ccc(F)cc2Br)c1 [Compound 339] | H (H shows the control value more than 50%) | L (L shows the control value of 50% or less) | H (H shows the control value more than 50%) |
| CCn1c(-c2ccc(OC)cc2Br)c(-n2cc(F)cn2)ccc1=O [Compound 354] | H (H shows the control value more than 50%) | L (L shows the control value of 50% or less) | H (H shows the control value more than 50%) |
| Cc1cnn(-c2cc(Br)c(=O)n(CC(F)F)c2-c2ccc(F)cc2Cl)c1 [Compound 344] | H (H shows the control value more than 50%) | L (L shows the control value of 50% or less) | H (H shows the control value more than 50%) |
| CCn1c(-c2c(F)cccc2F)c(-c2sccc2Br)cc(Cl)c1=O [Compound 365] | H (H shows the control value more than 50%) | L (L shows the control value of 50% or less) | H (H shows the control value more than 50%) |
| Cc1cnn(-c2cc(Br)c(=O)n(CC(F)F)c2-c2ccc(F)cc2Br)c1Cl [Compound 341] | H (H shows the control value more than 50%) | H (H shows the control value more than 50%) | H (H shows the control value more than 50%) |
